Values marked as one replicate rest on one cluster of the flow cell; about a third of the high ones do not repeat.
System: ATP
Assay: switch fluorescence ratio, 500 uM ATP over buffer (Cy3 cluster intensity, sum of 5 cycles each) (fold (ratio)); higher = stronger signal-on switching upon ATP binding; sequences stand for … in TCGTCGGCAGCGTCAGATGTGTATAAGAGACAGTTTTTTTTTTTTTTTTTTTTTTTTT…TC
Conditions: aptamer strand: ATP DNA aptamer (quencher-CACCTGGGGGAGTATTGCGGAGGAAGG + anchor), 100 nM annealed; ATP concentration: 500 uM; one replicate
In short: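 Clusters with intensities outside 100-1000 RFU were excluded. The remaining Cy3-labelled switching-strand clusters on a modified Illumina MiSeq flow-cell had been annealed to 100 nM quencher-labelled ATP aptamer and imaged in selection buffer, then after 15 min with 500 uM ATP at 22 °C, for five cycles separated by NaOH stripping and re-annealing. The fluorescence ratio, averaged per switch-domain sequence, is each cluster's summed target-cycle Cy3 intensity over its summed buffer-cycle Cy3 intensity.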
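Also: ATP exposure 15 min at 22 °C before imaging.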

Sequence | switch fluorescence ratio
TGCCTCAATC | 1.37
TATGGTTAGA | 1.02
AGCCTCAAAT | 1.05
ACAGGGCGCC | 0.987
AGGAAGTCGG | 0.978
CTTCTTCATA | 0.984
TGGTGCTTAG | 1.09
GAAGATAGTC | 1.09
TTAACCAGTT | 0.989
AGTTACAGC | 1.01
TTAGGGTTT | 0.987
ATGGGGTCAC | 0.99
ACAGGATTTA | 1
GCTCTTAAGT | 1.02
AGCGCAGACC | 1.27
TGCTATTAGC | 1.01
AGGTTAAGAG | 1.01
ATTATAATT | 0.971
TACTATAAGG | 1.4
AAGGGCGCCT | 0.992
TCGTAGGGTG | 1.13
GTTGATTAGT | 0.996

Sequence | switch fluorescence ratio
TCTGGGTCCG | 1.04
GATTGCGGCA | 0.972
ATCTTGTGCG | 0.988
TAGCCTTATT | 1.72
AGAGGCGTGC | 1.01
TGTAACAGGT | 1.03
CAAGAAGAGG | 0.991
AACGATGTTC | 0.979
GACAAAGACC | 1.01
GAGTTAGGAC | 1.03
ATAGAGCGTT | 1.02
CCACAGACCG | 1.18
GGCCTCGCAG | 1.17
TAGGAGACGG | 0.942
AGACTCAGCT | 1.04
GAATTATTGA | 1
ACCAGGTTTT | 1.14
GTGGTGCCGT | 1.1
GTCGGTACGA | 1.07
CTGTTGGACG | 0.964
GCTGAAGAGT | 1.03
GCATATCG | 0.996

Sequence | switch fluorescence ratio
CTTATTAAAT | 0.987
ACTACCACTG | 1.36
GACACCTTGC | 2.64
GGCCCGTCAG | 0.976
GAAGCCCCGC | 0.936
ATTAAATTAT | 0.979
TATAAGAGG | 0.982
AGAGCTTTTT | 0.99
ACCCTCGAGC | 0.981
CGTGGCGGCA | 0.985
GCATTATCAA | 0.971
ACATTGTCG | 1.02
CTTACACAGT | 1.01
GATAACATAA | 0.943
TGCTGAGGTG | 1.02
AGCTACTTAC | 1.62
ACGTGTGGTG | 1.02
TTACCCAGTA | 1.02
TGACTGGCGA | 1.23
ATCACCTTAA | 1.08
TTGAATAACT | 1.03
ATGAACGGA | 0.947

Sequence | switch fluorescence ratio
CGCCGAATGG | 1.05
TTTGCATCGA | 1.03
TCTTTTTCAT | 0.974
GGGGTCTGAC | 1.01
TTAGAAAGTG | 0.979
TCCAGCGCGA | 4.36
GCATGCTCTC | 1.18
TCTGAGTT | 0.98
ACTTCGAGTA | 1.04
AAGGGTTGAC | 1.06
TTCTTCTGAG | 1.06
AATTATGCCA | 0.987
CAGTATTCAA | 0.978
TCGCATTCG | 1.12
CCCGTATGTA | 1.03
ATATGGGTAG | 0.967
CAATCGGGGT | 0.992
GAAACCAAGA | 1.04
CTGGACCTTA | 1.04

From the supplement of paper PMC10126150
